The supplement of paper PMC8728848
The list shows a part of the results.

What was measured:
Assay in all cases: glycan array binding signal (z-score within array); higher = stronger binding
Conditions in all cases: glycan notation: IUPAC condensed, linker removed
[1] = target: Gal(b1-4)GlcNAc(b1-3)Gal(b1-4)GlcNAc(b1-2)[Gal(b1-4)GlcNAc(b1-3)Gal(b1-4)GlcNAc(b1-6)]Man(a1-6)[Gal(b1-4)GlcNAc(b1-3)Gal(b1-4)GlcNAc(b1-2)Man(a1-3)]Man(b1-4)GlcNAc(b1-4)GlcNAc
How it was run: (§1)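 Arrays were curated from the Consortium for Functional Glycomics database, 3228 in total, and kept only where the protein sequence was available. Binding is expressed as a within-array Z-score. This score was averaged across arrays of the same protein sequence at different concentrations or buffers and across linkers, and negative values can be read as non-binding.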

[2] = target: Gal(b1-4)GlcNAc(b1-3)Gal(b1-4)GlcNAc(b1-2)[Gal(b1-4)GlcNAc(b1-3)Gal(b1-4)GlcNAc(b1-6)]Man(a1-6)[Gal(b1-4)GlcNAc(b1-3)Gal(b1-4)GlcNAc(b1-2)Man(a1-3)]Man(b1-4)GlcNAc(b1-4)[Fuc(a1-6)]GlcNAc
How it was run: as §1

[3] = target: Gal(b1-4)GlcNAc(b1-3)Gal(b1-4)GlcNAc(b1-3)Gal(b1-4)GlcNAc
How it was run: as §1

[4] = target: Gal(b1-4)GlcNAc(b1-3)Gal(b1-4)GlcNAc(b1-3)Gal(b1-4)GlcNAc(b1-2)Man(a1-3)[Gal(b1-4)GlcNAc(b1-3)Gal(b1-4)GlcNAc(b1-3)Gal(b1-4)GlcNAc(b1-2)Man(a1-6)]Man(b1-4)GlcNAc(b1-4)GlcNAc
How it was run: as §1

[5] = target: Gal(b1-4)GlcNAc(b1-3)Gal(b1-4)GlcNAc(b1-3)Gal(b1-4)GlcNAc(b1-2)Man(a1-3)[Gal(b1-4)GlcNAc(b1-3)Gal(b1-4)GlcNAc(b1-3)Gal(b1-4)GlcNAc(b1-2)Man(a1-6)]Man(b1-4)GlcNAc(b1-4)[Fuc(a1-6)]GlcNAc
How it was run: as §1

[6] = target: Gal(b1-4)GlcNAc(b1-3)Gal(b1-4)GlcNAc(b1-3)Gal(b1-4)GlcNAc(b1-2)[Gal(b1-4)GlcNAc(b1-3)Gal(b1-4)GlcNAc(b1-3)Gal(b1-4)GlcNAc(b1-6)]Man(a1-6)[Gal(b1-4)GlcNAc(b1-3)Gal(b1-4)GlcNAc(b1-3)Gal(b1-4)GlcNAc(b1-2)Man(a1-3)]Man(b1-4)GlcNAc(b1-4)[Fuc(a1-6)]GlcNAc
How it was run: as §1

[7] = target: Gal(b1-4)GlcNAc(b1-3)Gal(b1-4)GlcNAc(b1-3)Gal(b1-4)GlcNAc(b1-3)Gal(b1-4)GlcNAc(b1-2)Man(a1-3)[Gal(b1-4)GlcNAc(b1-3)Gal(b1-4)GlcNAc(b1-3)Gal(b1-4)GlcNAc(b1-3)Gal(b1-4)GlcNAc(b1-2)Man(a1-6)]Man(b1-4)GlcNAc(b1-4)GlcNAc
How it was run: as §1

[8] = target: Gal(b1-4)GlcNAc(b1-3)Gal(b1-4)GlcNAc(b1-3)Gal(b1-4)GlcNAc(b1-3)Gal(b1-4)GlcNAc(b1-2)Man(a1-3)[Gal(b1-4)GlcNAc(b1-3)Gal(b1-4)GlcNAc(b1-3)Gal(b1-4)GlcNAc(b1-3)Gal(b1-4)GlcNAc(b1-2)Man(a1-6)]Man(b1-4)GlcNAc(b1-4)[Fuc(a1-6)]GlcNAc
How it was run: as §1

[9] = target: Gal(b1-4)GlcNAc(b1-3)Gal(b1-4)GlcNAc(b1-3)Gal(b1-4)GlcNAc(b1-3)Gal(b1-4)GlcNAc(b1-2)[Gal(b1-4)GlcNAc(b1-3)Gal(b1-4)GlcNAc(b1-3)Gal(b1-4)GlcNAc(b1-3)Gal(b1-4)GlcNAc(b1-6)]Man(a1-6)[Gal(b1-4)GlcNAc(b1-3)Gal(b1-4)GlcNAc(b1-3)Gal(b1-4)GlcNAc(b1-3)Gal(b1-4)GlcNAc(b1-2)Man(a1-3)]Man(b1-4)GlcNAc(b1-4)[Fuc(a1-6)]GlcNAc
How it was run: as §1

[10] = target: Gal(b1-4)GlcNAc(b1-3)Gal(b1-4)GlcNAc(b1-3)Gal(b1-4)GlcNAc(b1-3)Gal(b1-4)GlcNAc(b1-3)Gal(b1-4)GlcNAc(b1-2)Man(a1-3)[Gal(b1-4)GlcNAc(b1-3)Gal(b1-4)GlcNAc(b1-3)Gal(b1-4)GlcNAc(b1-3)Gal(b1-4)GlcNAc(b1-3)Gal(b1-4)GlcNAc(b1-2)Man(a1-6)]Man(b1-4)GlcNAc(b1-4)GlcNAc
How it was run: as §1

[11] = target: Gal(b1-4)GlcNAc(b1-3)Gal(b1-4)GlcNAc(b1-3)Gal(b1-4)GlcNAc(b1-3)Gal(b1-4)GlcNAc(b1-3)Gal(b1-4)GlcNAc(b1-2)Man(a1-3)[Gal(b1-4)GlcNAc(b1-3)Gal(b1-4)GlcNAc(b1-3)Gal(b1-4)GlcNAc(b1-3)Gal(b1-4)GlcNAc(b1-3)Gal(b1-4)GlcNAc(b1-2)Man(a1-6)]Man(b1-4)GlcNAc(b1-4)[Fuc(a1-6)]GlcNAc
How it was run: as §1

[12] = target: Gal(b1-4)GlcNAc(b1-3)Gal(b1-4)GlcNAc(b1-3)Gal(b1-4)GlcNAc(b1-3)Gal(b1-4)GlcNAc(b1-3)Gal(b1-4)GlcNAc(b1-2)[Gal(b1-4)GlcNAc(b1-3)Gal(b1-4)GlcNAc(b1-3)Gal(b1-4)GlcNAc(b1-3)Gal(b1-4)GlcNAc(b1-3)Gal(b1-4)GlcNAc(b1-6)]Man(a1-6)[Gal(b1-4)GlcNAc(b1-3)Gal(b1-4)GlcNAc(b1-3)Gal(b1-4)GlcNAc(b1-3)Gal(b1-4)GlcNAc(b1-3)Gal(b1-4)GlcNAc(b1-2)Man(a1-3)]Man(b1-4)GlcNAc(b1-4)[Fuc(a1-6)]GlcNAc
How it was run: as §1

[13] = target: Gal(b1-4)GlcNAc(b1-3)Gal(b1-4)GlcNAc(b1-3)Gal(b1-4)GlcNAc(b1-3)Gal(b1-4)GlcNAc(b1-3)Gal(b1-4)GlcNAc(b1-3)Gal(b1-4)GlcNAc(b1-2)Man(a1-3)[Gal(b1-4)GlcNAc(b1-3)Gal(b1-4)GlcNAc(b1-3)Gal(b1-4)GlcNAc(b1-3)Gal(b1-4)GlcNAc(b1-3)Gal(b1-4)GlcNAc(b1-3)Gal(b1-4)GlcNAc(b1-2)Man(a1-6)]Man(b1-4)GlcNAc(b1-4)GlcNAc
How it was run: as §1

[14] = target: Gal(b1-4)GlcNAc(b1-3)Gal(b1-4)GlcNAc(b1-3)GalNAc
How it was run: as §1

[15] = target: Gal(b1-4)GlcNAc(b1-3)Gal(b1-4)GlcNAc(b1-3)[Gal(b1-4)GlcNAc(b1-3)Gal(b1-4)GlcNAc(b1-6)]GalNAc
How it was run: as §1

[16] = target: Gal(b1-4)GlcNAc(b1-3)Gal(b1-4)GlcNAc(b1-6)[Gal(b1-3)]GalNAc
How it was run: as §1

[17] = target: Gal(b1-4)GlcNAc(b1-3)Gal(b1-4)[Fuc(a1-3)]GlcNAc(b1-3)Gal(b1-4)[Fuc(a1-3)]GlcNAc
How it was run: as §1

[18] = target: Gal(b1-4)GlcNAc(b1-3)GalNAc
How it was run: as §1

[19] = target: Gal(b1-4)GlcNAc(b1-3)[Fuc(a1-3)GlcNAc(b1-6)]Gal(b1-4)Glc
How it was run: as §1

[20] = target: Gal(b1-4)GlcNAc(b1-3)[Gal(b1-4)GlcNAc(b1-6)]Gal(b1-4)GlcNAc
How it was run: as §1

[21] = target: Gal(b1-4)GlcNAc(b1-3)[GlcNAc(b1-6)]Gal(b1-4)GlcNAc
How it was run: as §1

[22] = target: Gal(b1-4)GlcNAc(b1-6)Gal(b1-4)GlcNAc
How it was run: as §1

[23] = target: Gal(b1-4)GlcNAc(b1-6)GalNAc
How it was run: as §1

[24] = target: Gal(b1-4)GlcNAc(b1-6)[Gal(b1-3)]GalNAc
How it was run: as §1

[25] = target: Gal(b1-4)GlcNAc(b1-6)[Gal(b1-4)GlcNAc(b1-3)]GalNAc
How it was run: as §1

Gal(b1-4)GlcNAc6P = target: Gal(b1-4)GlcNAc6P
How it was run: as §1

Gal(b1-6)Gal = target: Gal(b1-6)Gal
How it was run: as §1

Gal3S(b1-3)GalNAc = target: Gal3S(b1-3)GalNAc
How it was run: as §1

Gal3S(b1-3)GlcNAc = target: Gal3S(b1-3)GlcNAc
How it was run: as §1

[26] = target: Gal3S(b1-3)[Fuc(a1-4)]GlcNAc
How it was run: as §1

Gal3S(b1-4)Glc = target: Gal3S(b1-4)Glc
How it was run: as §1

Gal3S(b1-4)Glc6S = target: Gal3S(b1-4)Glc6S
How it was run: as §1

Gal3S(b1-4)GlcNAc = target: Gal3S(b1-4)GlcNAc
How it was run: as §1

[27] = target: Gal3S(b1-4)[Fuc(a1-3)]Glc6S
How it was run: as §1

[28] = target: Gal3S(b1-4)[Fuc(a1-3)]GlcNAc
How it was run: as §1

[29] = target: Gal3S(b1-4)[Fuc(a1-3)]GlcNAc6S
How it was run: as §1

Gal3S4S(b1-4)GlcNAc = target: Gal3S4S(b1-4)GlcNAc
How it was run: as §1

B1: Cohesin-hDCIR (Homo sapiens) (protein)
chain: LDDLDAVRIKVDTVNAKPGDTVRIPVRFSGIPSKGIANCDFVYSYDPNVLEIIEIEPGDIIVDPNPDKSFDTAVYPDRKIIVFLFAEDSGTGAYAITKDGVFATIVAKVKEGAPNGLSVIKFVEVGGFANNDLVEQKTQFFDGGANVGDTTEPATPTTPVTTPTTTDDLDAASQKYSQLLEKKTTKELVHTTLECVKKNMPVEETAWSCCPKNWKSFSSNCYFISTESASWQDSEKDCARMEAHLLVINTQEEQDFIFQNLQEESAYFVGLSDPEGQRHWQWVDQTPYNESSTFWHPREPSDPNERCVVLNFRKSPKRWGWNDVNCLGPQRSVCEMMKIHLHHHHHH
- glycan array binding signal (z-score) [1]: 1.49
- glycan array binding signal (z-score) [2]: -0.329
- glycan array binding signal (z-score) [3]: -0.668
- glycan array binding signal (z-score) [4]: 1.23
- glycan array binding signal (z-score) [5]: 1.12
- glycan array binding signal (z-score) [6]: -0.052
- glycan array binding signal (z-score) [7]: -0.236
- glycan array binding signal (z-score) [8]: 2.82
- glycan array binding signal (z-score) [9]: 0.306
- glycan array binding signal (z-score) [10]: 2.38
- glycan array binding signal (z-score) [11]: 2.48
- glycan array binding signal (z-score) [12]: 0.168
- glycan array binding signal (z-score) [13]: -0.417
- glycan array binding signal (z-score) [14]: -0.503
- glycan array binding signal (z-score) [15]: -0.127
- glycan array binding signal (z-score) [16]: 0.379
- glycan array binding signal (z-score) [17]: -0.584
- glycan array binding signal (z-score) [18]: -0.558
- glycan array binding signal (z-score) [19]: -0.615
- glycan array binding signal (z-score) [20]: -0.335
- glycan array binding signal (z-score) [21]: 0.379
- glycan array binding signal (z-score) [22]: -0.313
- glycan array binding signal (z-score) [23]: 2.18
- glycan array binding signal (z-score) [24]: -0.281
- glycan array binding signal (z-score) [25]: -0.595
- glycan array binding signal (z-score) (Gal(b1-4)GlcNAc6P): -0.309
- glycan array binding signal (z-score) (Gal(b1-6)Gal): -0.352
- glycan array binding signal (z-score) (Gal3S(b1-3)GalNAc): 0.31
- glycan array binding signal (z-score) (Gal3S(b1-3)GlcNAc): 0.117
- glycan array binding signal (z-score) [26]: 0.319
- glycan array binding signal (z-score) (Gal3S(b1-4)Glc): 1.84
- glycan array binding signal (z-score) (Gal3S(b1-4)Glc6S): 0.902
- glycan array binding signal (z-score) (Gal3S(b1-4)GlcNAc): 0.834
- glycan array binding signal (z-score) [27]: -0.343
- glycan array binding signal (z-score) [28]: -0.275
- glycan array binding signal (z-score) [29]: 3.25
- glycan array binding signal (z-score) (Gal3S4S(b1-4)GlcNAc): -0.051
